Results from a compilation of properties of binary mixtures (doi:10.1016/j.jtice.2014.04.012).
The densities may have been worked out from excess volumes.

Assay: xn = mol fraction of the nth substance listed
Conditions: 100 kPa

CN(C)C=O + CCCC[n+]1ccn(C)c1.F[B-](F)(F)F
x2 = 0
Conditions | mass density [kg/m3]
303.15 K | 939.1
313.15 K | 929.6
323.15 K | 919.9

CCCC[n+]1ccn(C)c1.F[B-](F)(F)F + CN(C)C=O
mass density [kg/m3]
Conditions | x1 = 0.1008 | x1 = 0.2015 | x1 = 0.3022 | x1 = 0.4024 | x1 = 0.502 | x1 = 0.6024 | x1 = 0.7019 | x1 = 0.8015 | x1 = 0.9002 | x1 = 1
303.15 K | – | 1048.1 | 1082.2 | 1109 | 1130.7 | 1148.9 | 1164 | 1177.1 | 1188.2 | 1198
313.15 K | 994 | 1039.6 | 1074.1 | 1101.2 | 1123.1 | 1141.4 | 1156.6 | – | 1181.1 | –
323.15 K | 985.1 | 1031.2 | – | 1093.3 | 1115.4 | 1133.9 | – | 1162.6 | 1173.9 | 1183.9
333.15 K | 976.2 | 1022.8 | 1057.9 | 1085.5 | 1107.8 | 1126.5 | – | 1155.4 | 1166.9 | 1176.9
